Over roughly 110,000 compounds, “z-score” has its median near -0.1; the highest 2% begin near 2. The list shows a part of the results. Active and inactive are the calls of the source.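 The calls were made as follows: active = z-score in the third read window above 3 or below -3; inactive = the rest.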
These compounds were tested against Metabotropic glutamate receptor 8 (Rattus norvegicus) (UniProt P70579) (assay: mGluR8 Gi/Go-coupled signaling modulation – cell-based, rat, thallium flux, HTS, primary screen (AID 488969)). Settings: HEK293 rat mGluR8, GIRK (G protein-gated inwardly rectifying potassium channel) thallium flux, FluoZin2; at 10 µM; stronger effect = higher value; submaximal glutamate (EC20) added with thallium.
Chain of UniProt P70579 (P70579 whole entry, looked up): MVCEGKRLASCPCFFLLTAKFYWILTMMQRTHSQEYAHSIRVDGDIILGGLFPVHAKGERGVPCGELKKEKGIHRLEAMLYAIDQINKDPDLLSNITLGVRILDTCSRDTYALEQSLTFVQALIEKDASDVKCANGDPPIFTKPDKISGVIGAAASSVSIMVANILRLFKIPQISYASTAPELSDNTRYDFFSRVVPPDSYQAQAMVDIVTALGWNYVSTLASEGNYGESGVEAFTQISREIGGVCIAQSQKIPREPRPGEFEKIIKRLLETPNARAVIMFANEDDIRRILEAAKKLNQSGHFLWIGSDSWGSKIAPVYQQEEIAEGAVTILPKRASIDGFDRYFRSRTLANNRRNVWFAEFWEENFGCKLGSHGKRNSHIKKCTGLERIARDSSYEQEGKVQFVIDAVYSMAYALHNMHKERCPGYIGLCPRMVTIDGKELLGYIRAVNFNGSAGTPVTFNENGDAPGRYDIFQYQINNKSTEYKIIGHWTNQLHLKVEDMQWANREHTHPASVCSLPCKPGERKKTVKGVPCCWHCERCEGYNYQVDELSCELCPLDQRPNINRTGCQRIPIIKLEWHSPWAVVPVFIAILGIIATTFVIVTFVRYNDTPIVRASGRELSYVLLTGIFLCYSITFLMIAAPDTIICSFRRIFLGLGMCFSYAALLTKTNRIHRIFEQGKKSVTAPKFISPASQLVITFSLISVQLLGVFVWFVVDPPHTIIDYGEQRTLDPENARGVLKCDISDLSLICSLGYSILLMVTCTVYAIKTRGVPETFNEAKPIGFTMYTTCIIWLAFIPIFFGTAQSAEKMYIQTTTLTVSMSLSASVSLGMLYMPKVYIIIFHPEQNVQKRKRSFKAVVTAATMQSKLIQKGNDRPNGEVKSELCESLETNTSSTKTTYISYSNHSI

| SMILES | z-score |
| --- | --- |
| Cc1cc(C)cc(NC(=O)CSc2nc3c(c(=O)[nH]2)CN(Cc2ccc(F)cc2)CC3)c1 | -0.257 |
| Cc1ccc(OCc2nnc(SCC(=O)NCc3ccco3)n2C)cc1 | 0.00137 |
| CC(=O)c1ccccc1NC(=O)Cn1c(=O)cnc2ccccc21 | -0.0607 |
| COC(=O)C1=C(C)N(C)C(C)=C(C(=O)OC)C1c1ccccn1 | 0.756 |
| CCCCC1N2CC3([N+](=O)[O-])CN1CC([N+](=O)[O-])(C2)C3(C)C (configuration not stated) | -0.164 |
| CC1=C(C(N)=O)C(c2ccccc2)n2nc(-c3cccs3)nc2N1 (configuration not stated) | 0.55 |
| Cc1ccc(NCc2ccccc2O)cc1 | -0.328 |
| CCC(=O)Nc1ccc(NC(=O)c2ccco2)cc1 | 0.535 |
| CC(=O)O/N=C(/C)c1ncc(C(F)(F)F)cc1N1CCOCC1 | -0.337 |
| O=Cc1ccc2noc(-c3ccc(F)cc3)c2c1 | -0.293 |
| O=C(Nc1ccccc1Br)C(=O)N1CCCC1 | -0.0281 |
| CC1=C(C(=O)OCC2CCCO2)C(c2cccc(C(F)(F)F)c2)C2=C(CC(c3ccco3)CC2=O)N1 (configuration not stated) | -0.199 |
| O=C(O)c1ccc(F)c(S(=O)(=O)Nc2ccccc2)c1 | -0.264 |
| COc1ccc(CNCCCO)cc1OC | -0.112 |
| O=C(Nc1cccc([N+](=O)[O-])c1)c1ccc(-c2ccccc2)cc1 | 0.358 |
| CCn1c(SCC(=O)OC)nnc1-c1ccncc1 | 0.188 |
| CCOC(=O)Cc1csc(NC(=S)NC(=O)C(C)(C)C)n1 | 1.73 |
| O=c1c2ccccc2nc2n1CCCCN2 | -0.128 |
| O=C(Oc1nsnc1N1CCOCC1)c1ccccc1 | -2.61 |
| Cc1ccc([N+](=O)[O-])cc1-c1ccc(/C=N/NC(=O)c2cc3c(ccc4ccccc43)o2)o1 | -0.0871 |
| COc1ccc(OC)c(S(=O)(=O)N2Cc3ccccc3CC2C(=O)O)c1 (configuration not stated) | 0.299 |
| Nc1nc2c(s1)CC(c1ccccc1)CC2 (configuration not stated) | -0.255 |

| SMILES | z-score |
| --- | --- |
| CCN(CC)S(=O)(=O)c1ccc2c(c1)nc(CCC(=O)OCC(=O)Nc1cc(Cl)cc(Cl)c1)n2C | -0.0198 |
| Cc1ccccc1N1C(=O)c2ccccc2NC1c1ccncc1 (configuration not stated) | -0.158 |
| O=C(O)c1cc(S(=O)(=O)Nc2ccccc2C(=O)O)ccc1O | -0.576 |
| Cn1nc(C(F)(F)F)c2cc(C(=O)Nc3ccc(F)cc3F)sc21 | -0.353 |
| COc1ccc(C)cc1NC(=O)CSc1nnc(CC(=O)Nc2cccc(C(F)(F)F)c2)n1C | -0.324 |
| CC1=CC2=NC(=O)/C(=C\c3ccc(-c4cccc(Cl)c4)o3)C(=N)N2O1 | 0.0235 |
| COc1cccc(-c2cc(C(=O)N3C(C)CCCC3C)no2)c1 (configuration not stated) | -0.0336 |
| O=C(NC1CCCC1)C(c1ccccc1F)N(C(=O)Cc1cccs1)c1ccc2c(c1)OCCO2 (configuration not stated) | -0.283 |
| CC(C)(C)c1nc2ccccc2c(=O)n1N1C(=O)c2ccccc2C1=O | -0.0123 |
| CN(C)c1ccnc(N(Cc2ccccc2)Cc2ccccc2)c1C#N | 1.24 |
| Cc1c(-c2ccccc2)nc2ccccc2c1C(=O)Oc1ccc([N+](=O)[O-])cc1 | -0.143 |
| CC1=CCC2C(=O)N(c3nc4ccccc4n3C)C(=O)C2C1 (configuration not stated) | -0.167 |
| COc1ccc(C2c3c(oc4ccccc4c3=O)C(=O)N2CC2CCCO2)cc1 (configuration not stated) | 0.6 |
| CC1CCCC(C)N1C(=O)CSCc1ccc(Cl)cc1 (configuration not stated) | -0.239 |
| O=C(Nc1nncs1)C(Sc1ccccc1)c1ccccc1 (configuration not stated) | -0.284 |
| CC12C(=O)N(c3cccc(OC(=O)c4ccco4)c3)C(=O)C1C1c3ccccc3C2c2ccccc21 (configuration not stated) | 0.285 |
| CC(=O)NN1C(=O)c2ccc(Oc3ccc([N+](=O)[O-])cc3)cc2C1=O | -0.00435 |
| COc1ccccc1C1/C(=C(/O)c2ccc(C)cc2)C(=O)C(=O)N1CCN1CCOCC1 (configuration not stated) | -0.543 |
| COc1ccc(-c2cc(C(=O)OC3CCOC3=O)c3ccccc3n2)cc1 (configuration not stated) | 0.00205 |
| COc1cccc(N2CCN(Cc3nc(N)nc(Nc4ccccc4OC)n3)CC2)c1 | -0.203 |
| CCOc1cc(CNCCc2ccc(S(N)(=O)=O)cc2)ccc1OCC(=O)NC(C)(C)C | 0.0929 |
| O=[N+]([O-])c1cc(-c2cnc3ccccc3n2)ccc1Oc1ccc(Br)cc1 | 0.971 |

| SMILES | z-score |
| --- | --- |
| CC(=O)c1cccc(NC(=S)NC(=O)c2cccc(Cl)c2)c1 | active: 8.71 |
| CCc1nc(N2CCN(C(=O)c3ccccc3)CC2)c(C#N)c2c1COC(C)(C)C2 | -1.59 |
| CC1(C)CC(=O)c2c(-c3cccnc3)n[nH]c2C1 | 0.75 |
| C=CCn1c(-c2csc(-c3ccccc3)n2)n[nH]c1=S | 0.103 |
| Cn1c(SCC(=O)NCCNC(=O)CSc2nnc(C(F)(F)F)n2C)nnc1C(F)(F)F | 0.484 |
| Cc1cc(NC(=O)c2ccc(S(=O)(=O)Nc3ccccc3)cc2)no1 | -0.203 |
| COc1ccc(NC(=O)N(Cc2ccc(C)cc2)Cc2cccnc2)c(OC)c1 | -0.279 |
| Cc1cc(C)cc(N(C(=O)c2ccccn2)C(C(=O)NC2CCCCC2)c2cccs2)c1 (configuration not stated) | -0.409 |
| Cc1nnc(Nc2ccc(Cl)cc2)n(N)c1=O | -0.183 |
| Cc1cc(C)c(C)c(S(=O)(=O)NCC(=O)Nc2sc3c(c2C(N)=O)CCCC3)c1C | -0.279 |
| COc1ccccc1NC(=O)N1CCCC1C(=O)Nc1ccc2c(c1)OCO2 (configuration not stated) | -0.145 |
| COCCn1nnnc1C(C(C)C)N1CCC(Cc2ccccc2)CC1 (configuration not stated) | 0.00487 |
| Cc1cc(=O)[nH]c(N2CCN(C(c3ccccc3)c3ccccc3)CC2)n1 | 0.968 |
| COC(=O)c1c(NC(=O)CN(c2ccc(C)c(C)c2)S(C)(=O)=O)sc2c1CCCC2 | -0.153 |
| O=C1CC(N2CCN(c3cccc(C(F)(F)F)c3)CC2)C(=O)N1c1ccccc1F (configuration not stated) | 0.0327 |
| CC(C)CC(=O)NC(=S)NNC(=O)c1ccc(NC(=O)C2CCCCC2)cc1 | -0.269 |
| CC1CCN(S(=O)(=O)c2ccc(NC(=O)Cn3nnc(-c4ccccc4)n3)cc2)CC1 | 0.0222 |
| CCOCCOC(=O)c1ccc(-n2cncn2)nc1 | -0.445 |
| Fc1ccc(CNCc2cccc(Br)c2)cc1 | 0.0949 |
| COc1cccc(-n2c(C)nn(C)c2=O)c1 | 0.146 |
| COc1ccc(/C(O)=C(\C#N)c2nc3ccccc3n2C)cc1OC | -0.414 |
| Cc1cc(C)c(NC(=O)CN2C(=O)NC3(CCCCC3)C2=O)c(C)c1 | -0.99 |

| SMILES | z-score |
| --- | --- |
| COC(=O)c1sc(NC(=S)NC(=O)c2ccccc2)nc1C | 2.47 |
| CC(C(=O)c1ccc(-c2ccccc2)cc1)[n+]1ccccc1 (configuration not stated) | 0.48 |
| CC1=NN(c2ccccc2)C(=O)/C1=C\c1ccc(Br)s1 | 0.15 |
| Cc1ccc(C(=O)CSc2nnc3c4ccccc4nc(C(C)(C)C)n23)cc1 | 0.285 |
| O=C(CSc1nc2ccccc2c(=O)n1-c1ccccc1)N1CCCc2ccccc21 | -0.91 |
| CCOC(=O)Cc1csc(SCC(=O)NC(C)C23CC4CC(CC(C4)C2)C3)n1 (configuration not stated) | -0.23 |
| Cc1ccc(CSc2ccc3nnc(-c4cccnc4)n3n2)cc1 | -0.711 |
| Cc1ccc(Cn2nnc(C(=O)Nc3cc(C)ccc3C)c2N)cc1 | -0.277 |
| Cc1ccccc1Cc1c(C)nc2c(C(=O)NCc3ccc4c(c3)OCO4)cnn2c1C | 0.227 |
| CC1CCc2c(c3ccccc3[nH]c2=O)O1 (configuration not stated) | -0.168 |
| COc1ccc2cc(/C=N/NC(=O)CSCc3ccc([N+](=O)[O-])cc3)c(Cl)nc2c1 | -0.344 |
| O=C(N/N=C/c1cccc(F)c1)c1cc(-c2ccco2)nc2ccccc12 | -0.131 |
| CCn1c(SCC(=O)Nc2cc(C)c(Cl)cc2OC)nnc1-c1ccco1 | -1.44 |
| COC(=O)c1[nH]c2c(c1C)C(=O)CC(c1cccs1)C2 (configuration not stated) | -0.349 |
| O=C(NCc1ccco1)c1cccc(F)c1 | 0.795 |
| COc1cc2cc3c(N)c(C(=O)Nc4sc(C)c(C)c4C#N)sc3nc2cc1OC | 0.0438 |
| O=C(CSc1nc(-c2ccccc2Cl)ns1)NCc1ccc2c(c1)OCO2 | -0.236 |
| CCn1c(=O)n(Cc2ccco2)c(=N)c2c3c(sc21)COC(C)(C)C3 | -0.025 |
| Cc1ccc(NC2=Nc3ccccc3N3C2=Nc2c(c(C)nn2-c2ccccc2)C3c2ccc(O)c(O)c2)cc1 (configuration not stated) | -0.179 |
| Cc1cccc(C)c1Nc1nnc(SCc2nc3ccccc3s2)s1 | -0.281 |
| O=C(O)c1cc(NCc2c(F)cccc2Cl)ccc1N1CCOCC1 | -0.908 |
| O=C(NC(=S)Nc1ccc2oc(=O)ccc2c1)c1ccc(-c2cccc(Cl)c2Cl)o1 | 0.766 |

| SMILES | z-score |
| --- | --- |
| Cn1c(SCC(=O)OCC(=O)c2ccccc2)nnc1-c1cccs1 | 0.26 |
| CC12C(=O)N(c3cccc4cccnc34)C(=O)C1C1C=CC2C1 (configuration not stated) | 0.818 |
| O=C(Nc1ccc(Cc2ccncc2)cc1)c1ccc(Cl)c([N+](=O)[O-])c1 | -0.0949 |
| CC(NC(=O)C1CCC1)c1ccc(Br)cc1 (configuration not stated) | -0.264 |
| COc1nc(OC)nc(N2CCC(C(=O)NCc3ccc(F)cc3)CC2)n1 | -2.05 |
| COc1cc2[nH]c3c(=O)n(CCN(C(C)C)C(C)C)cnc3c2cc1OC | -0.405 |
| COC(=O)N/N=C\c1c(C)nn(-c2ccccc2)c1Cl | -0.389 |
| CCOC(=O)c1[nH]c(CSc2nnc(-c3ccc(OC)cc3)o2)c(C(=O)OCC)c1C | 0.245 |
| CCCOc1ccc(C2(C(=O)O)CCCC2)cc1 | 0.219 |
| COC(=O)c1sc(N)c(C(=O)OC)c1COC(=O)c1c(C)noc1C | -0.374 |
| CC1CCc2c(sc(NC(=O)CN3CCN(C(=O)c4ccco4)CC3)c2C#N)C1 (configuration not stated) | 0.101 |
| CCCCNC(=S)N(C)/N=C/c1ccc(OCC(=O)Nc2ccc(OC)cc2)c(OC)c1 | -0.056 |
| COc1ccccc1CSc1ncc(-c2ccc([N+](=O)[O-])cc2)[nH]1 | -0.488 |
| Cc1cc(=O)[nH]c(N/N=C/C2=C(N3CCOCC3)C(=C\c3ccc(Cl)cc3)/CC2)n1 | -0.00507 |
| Cc1cc(=O)n2[nH]c(N3C(=O)CCC3=O)nc2n1 | 1.24 |
| COC(=O)C1C(c2ccc(OC)c(OC)c2)NC(c2ccc(OC)c(OC)c2)C(C(=O)OC)S1(=O)=O (configuration not stated) | 1.22 |
| CC1(C(=O)NC2CCCCC2)CCC(=O)N1Cc1cccnc1 (configuration not stated) | 0.767 |
| CC/C(=N/Nc1ccccc1)c1cnnc(-c2ccccc2)n1 | 0.574 |
| CN(C)/C=C/C(=O)c1ccccc1F | 0.071 |

From PubChem BioAssay AID488969 (Vanderbilt High Throughput Screening Facility, 2010)
